# Some of the results follow. The list includes weakly bound sequences.
# Molecular target: T1, MBP-FoxP3dN (UniProt Q99JB6)
# T1 sequence: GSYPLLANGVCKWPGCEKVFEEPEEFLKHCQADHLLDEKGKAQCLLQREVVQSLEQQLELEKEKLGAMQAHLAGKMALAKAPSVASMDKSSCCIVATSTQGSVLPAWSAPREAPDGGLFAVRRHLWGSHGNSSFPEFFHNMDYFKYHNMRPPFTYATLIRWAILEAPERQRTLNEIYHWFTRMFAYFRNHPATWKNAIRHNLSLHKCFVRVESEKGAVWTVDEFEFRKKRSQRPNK
# Experiment: PD-seq (MBP pull-down with sequencing)
# Conditions: 20 mM Tris-HCl pH 7.5, 100 mM NaCl, 1.5 mM MgCl2, 0.4 uM protein, 0.1 uM dsDNA library, 30 min, room temperature, amylose pull-down; high values mean tight binding; double strand, one strand shown
row,Sequence,binding signal (RPM ratio (pull-down/input))
1,GATGATTGTTCTCCCAGCTGATGAATTTTGAGAATCGAGTAAACAAATTTTCCTAATCTTTCTGTTCAAGCGCCATCTAC,0.279
2,GATGATTGTTCTCCCAGCTGATGAATTCGATCAATCGAGTAAACAAATTTTCCTAATCTTTCTGTTCAAGCGCCATCTAC,0.281
3,GATGATTGTTCTCCCAGCTGATGAATTTCAGGTTTCGAGTAAACAAATTTTCCTAATCTTTCTGTTCAAGCGCCATCTAC,0.375
4,GATGATTGTTCTCCCAGCTGATGAATTAAAGAATTCGAGTAAACAAATTTTCCTAATCTTTCTGTTCAAGCGCCATCTAC,0.677
5,GATGATTGTTCTCCCAGCTGATGAATTTCCGTACTCGAGTAAACAAATTTTCCTAATCTTTCTGTTCAAGCGCCATCTAC,0.33
6,GATGATTGTTCTCCCAGCTGATGAATTGTGAACTTCGAGTAAACAAATTTTCCTAATCTTTCTGTTCAAGCGCCATCTAC,0.508
7,GATGATTGTTCTCCCAGCTGATGAATTGATGACCTCGAGTAAACAAATTTTCCTAATCTTTCTGTTCAAGCGCCATCTAC,0.526
8,GATGATTGTTCTCCCAGCTGATGAATTAGTCTGATCGAGTAAACAAATTTTCCTAATCTTTCTGTTCAAGCGCCATCTAC,0.373
9,GATGATTGTTCTCCCAGCTGATGAATTCTTGTTGTCGAGTAAACAAATTTTCCTAATCTTTCTGTTCAAGCGCCATCTAC,2.36
10,GATGATTGTTCTCCCAGCTGATGAATTGAGCCATTCGAGTAAACAAATTTTCCTAATCTTTCTGTTCAAGCGCCATCTAC,3.53
11,GATGATTGTTCTCCCAGCTGATGAATTCATAACCTCGAGTAAACAAATTTTCCTAATCTTTCTGTTCAAGCGCCATCTAC,0.445
12,GATGATTGTTCTCCCAGCTGATGAATTAGTTGACTCGAGTAAACAAATTTTCCTAATCTTTCTGTTCAAGCGCCATCTAC,4.37
13,GATGATTGTTCTCCCAGCTGATGAATTGTTTCGTTCGAGTAAACAAATTTTCCTAATCTTTCTGTTCAAGCGCCATCTAC,1.24
14,GATGATTGTTCTCCCAGCTGATGAATTCAGTTCGTCGAGTAAACAAATTTTCCTAATCTTTCTGTTCAAGCGCCATCTAC,0.758
15,GATGATTGTTCTCCCAGCTGATGAATTCTAGATATCGAGTAAACAAATTTTCCTAATCTTTCTGTTCAAGCGCCATCTAC,0.375
16,GATGATTGTTCTCCCAGCTGATGAATTGATCGGTTCGAGTAAACAAATTTTCCTAATCTTTCTGTTCAAGCGCCATCTAC,0.362
17,GATGATTGTTCTCCCAGCTGATGAATTCGTGAACTCGAGTAAACAAATTTTCCTAATCTTTCTGTTCAAGCGCCATCTAC,0.302
18,GATGATTGTTCTCCCAGCTGATGAATTTAACTAATCGAGTAAACAAATTTTCCTAATCTTTCTGTTCAAGCGCCATCTAC,0.238
19,GATGATTGTTCTCCCAGCTGATGAATTGCGCGAGTCGAGTAAACAAATTTTCCTAATCTTTCTGTTCAAGCGCCATCTAC,1.18
20,GATGATTGTTCTCCCAGCTGATGAATTGAATTGGTCGAGTAAACAAATTTTCCTAATCTTTCTGTTCAAGCGCCATCTAC,1.09
21,GATGATTGTTCTCCCAGCTGATGAATTTTACTTTTCGAGTAAACAAATTTTCCTAATCTTTCTGTTCAAGCGCCATCTAC,0.576

row,Sequence,binding signal (RPM ratio (pull-down/input))
1,GATGATTGTTCTCCCAGCTGATGAATTTAAGTTTTCGAGTAAACAAATTTTCCTAATCTTTCTGTTCAAGCGCCATCTAC,0.694
2,GATGATTGTTCTCCCAGCTGATGAATTCTGTACATCGAGTAAACAAATTTTCCTAATCTTTCTGTTCAAGCGCCATCTAC,1.1
3,GATGATTGTTCTCCCAGCTGATGAATTGTTGAGATCGAGTAAACAAATTTTCCTAATCTTTCTGTTCAAGCGCCATCTAC,0.931
4,GATGATTGTTCTCCCAGCTGATGAATTCTTGAAATCGAGTAAACAAATTTTCCTAATCTTTCTGTTCAAGCGCCATCTAC,0.29
5,GATGATTGTTCTCCCAGCTGATGAATTTGGATATTCGAGTAAACAAATTTTCCTAATCTTTCTGTTCAAGCGCCATCTAC,1.4
6,GATGATTGTTCTCCCAGCTGATGAATTGGGCGAATCGAGTAAACAAATTTTCCTAATCTTTCTGTTCAAGCGCCATCTAC,0.367
7,GATGATTGTTCTCCCAGCTGATGAATTCCTGGGGTCGAGTAAACAAATTTTCCTAATCTTTCTGTTCAAGCGCCATCTAC,0.186
8,GATGATTGTTCTCCCAGCTGATGAATTGGGCCCGTCGAGTAAACAAATTTTCCTAATCTTTCTGTTCAAGCGCCATCTAC,1.06
9,GATGATTGTTCTCCCAGCTGATGAATTTCGCGGGTCGAGTAAACAAATTTTCCTAATCTTTCTGTTCAAGCGCCATCTAC,0.6
10,GATGATTGTTCTCCCAGCTGATGAATTCTCGCTGTCGAGTAAACAAATTTTCCTAATCTTTCTGTTCAAGCGCCATCTAC,0.34
11,GATGATTGTTCTCCCAGCTGATGAATTATCAGCATCGAGTAAACAAATTTTCCTAATCTTTCTGTTCAAGCGCCATCTAC,0.876
12,GATGATTGTTCTCCCAGCTGATGAATTCGCATGATCGAGTAAACAAATTTTCCTAATCTTTCTGTTCAAGCGCCATCTAC,0.877
13,GATGATTGTTCTCCCAGCTGATGAATTAACCTTTTCGAGTAAACAAATTTTCCTAATCTTTCTGTTCAAGCGCCATCTAC,0.238
14,GATGATTGTTCTCCCAGCTGATGAATTCCTCCAATCGAGTAAACAAATTTTCCTAATCTTTCTGTTCAAGCGCCATCTAC,0.238
15,GATGATTGTTCTCCCAGCTGATGAATTAACGGATTCGAGTAAACAAATTTTCCTAATCTTTCTGTTCAAGCGCCATCTAC,0.29
16,GATGATTGTTCTCCCAGCTGATGAATTTTCCCTTTCGAGTAAACAAATTTTCCTAATCTTTCTGTTCAAGCGCCATCTAC,0.241
17,GATGATTGTTCTCCCAGCTGATGAATTCAAGATTTCGAGTAAACAAATTTTCCTAATCTTTCTGTTCAAGCGCCATCTAC,0.26
18,GATGATTGTTCTCCCAGCTGATGAATTTCCGCGATCGAGTAAACAAATTTTCCTAATCTTTCTGTTCAAGCGCCATCTAC,0.549
19,GATGATTGTTCTCCCAGCTGATGAATTTTCTAACTCGAGTAAACAAATTTTCCTAATCTTTCTGTTCAAGCGCCATCTAC,0.248
20,GATGATTGTTCTCCCAGCTGATGAATTGAACGAATCGAGTAAACAAATTTTCCTAATCTTTCTGTTCAAGCGCCATCTAC,0.222
21,GATGATTGTTCTCCCAGCTGATGAATTACTCCTATCGAGTAAACAAATTTTCCTAATCTTTCTGTTCAAGCGCCATCTAC,0.309

row,Sequence,binding signal (RPM ratio (pull-down/input))
1,GATGATTGTTCTCCCAGCTGATGAATTGCCATCTTCGAGTAAACAAATTTTCCTAATCTTTCTGTTCAAGCGCCATCTAC,1.07
2,GATGATTGTTCTCCCAGCTGATGAATTCTGTGGGTCGAGTAAACAAATTTTCCTAATCTTTCTGTTCAAGCGCCATCTAC,1.06
3,GATGATTGTTCTCCCAGCTGATGAATTATAATGCTCGAGTAAACAAATTTTCCTAATCTTTCTGTTCAAGCGCCATCTAC,0.87
4,GATGATTGTTCTCCCAGCTGATGAATTATTCCCTTCGAGTAAACAAATTTTCCTAATCTTTCTGTTCAAGCGCCATCTAC,0.264
5,GATGATTGTTCTCCCAGCTGATGAATTGATGTGCTCGAGTAAACAAATTTTCCTAATCTTTCTGTTCAAGCGCCATCTAC,1.22
6,GATGATTGTTCTCCCAGCTGATGAATTAGGCGCTTCGAGTAAACAAATTTTCCTAATCTTTCTGTTCAAGCGCCATCTAC,0.907
7,GATGATTGTTCTCCCAGCTGATGAATTCTATTTATCGAGTAAACAAATTTTCCTAATCTTTCTGTTCAAGCGCCATCTAC,6.6
8,GATGATTGTTCTCCCAGCTGATGAATTGGGCTGGTCGAGTAAACAAATTTTCCTAATCTTTCTGTTCAAGCGCCATCTAC,0.424
9,GATGATTGTTCTCCCAGCTGATGAATTTCGGTAATCGAGTAAACAAATTTTCCTAATCTTTCTGTTCAAGCGCCATCTAC,0.623
10,GATGATTGTTCTCCCAGCTGATGAATTCATGGTTTCGAGTAAACAAATTTTCCTAATCTTTCTGTTCAAGCGCCATCTAC,0.909
11,GATGATTGTTCTCCCAGCTGATGAATTTTTAAATTCGAGTAAACAAATTTTCCTAATCTTTCTGTTCAAGCGCCATCTAC,0.277
12,GATGATTGTTCTCCCAGCTGATGAATTATGATTATCGAGTAAACAAATTTTCCTAATCTTTCTGTTCAAGCGCCATCTAC,3.53
13,GATGATTGTTCTCCCAGCTGATGAATTTGTCGAATCGAGTAAACAAATTTTCCTAATCTTTCTGTTCAAGCGCCATCTAC,0.715
14,GATGATTGTTCTCCCAGCTGATGAATTTTTTTCATCGAGTAAACAAATTTTCCTAATCTTTCTGTTCAAGCGCCATCTAC,0.304
15,GATGATTGTTCTCCCAGCTGATGAATTGAGAGGATCGAGTAAACAAATTTTCCTAATCTTTCTGTTCAAGCGCCATCTAC,0.236
16,GATGATTGTTCTCCCAGCTGATGAATTCGAATAATCGAGTAAACAAATTTTCCTAATCTTTCTGTTCAAGCGCCATCTAC,0.345
17,GATGATTGTTCTCCCAGCTGATGAATTGCTATAGTCGAGTAAACAAATTTTCCTAATCTTTCTGTTCAAGCGCCATCTAC,0.638
18,GATGATTGTTCTCCCAGCTGATGAATTTAGTTTATCGAGTAAACAAATTTTCCTAATCTTTCTGTTCAAGCGCCATCTAC,5.05
19,GATGATTGTTCTCCCAGCTGATGAATTTGACGCCTCGAGTAAACAAATTTTCCTAATCTTTCTGTTCAAGCGCCATCTAC,0.891
20,GATGATTGTTCTCCCAGCTGATGAATTTAGGGGGTCGAGTAAACAAATTTTCCTAATCTTTCTGTTCAAGCGCCATCTAC,0.76
21,GATGATTGTTCTCCCAGCTGATGAATTTCGCCAATCGAGTAAACAAATTTTCCTAATCTTTCTGTTCAAGCGCCATCTAC,0.826
